Experimental data from PMC6919601, “Identification of Plasmodium dipeptidyl aminopeptidase allosteric inhibitors by high throughput screening” (PLoS ONE, 2019).
Screen size: about 110,000 compounds; about 230 (0.21%) showed an effect of 50% or more. This is one part of the list.

target: DPAP1 (Plasmodium falciparum, UniProt Q8IIJ9); assay: primary screen, percent inhibition; read by cleavage of a fluorogenic dipeptide substrate; higher = more effect of the substance; parameters: species or system P. falciparum D10 trophozoite lysates; single well
Sequence (Q8IIJ9 whole entry, looked up): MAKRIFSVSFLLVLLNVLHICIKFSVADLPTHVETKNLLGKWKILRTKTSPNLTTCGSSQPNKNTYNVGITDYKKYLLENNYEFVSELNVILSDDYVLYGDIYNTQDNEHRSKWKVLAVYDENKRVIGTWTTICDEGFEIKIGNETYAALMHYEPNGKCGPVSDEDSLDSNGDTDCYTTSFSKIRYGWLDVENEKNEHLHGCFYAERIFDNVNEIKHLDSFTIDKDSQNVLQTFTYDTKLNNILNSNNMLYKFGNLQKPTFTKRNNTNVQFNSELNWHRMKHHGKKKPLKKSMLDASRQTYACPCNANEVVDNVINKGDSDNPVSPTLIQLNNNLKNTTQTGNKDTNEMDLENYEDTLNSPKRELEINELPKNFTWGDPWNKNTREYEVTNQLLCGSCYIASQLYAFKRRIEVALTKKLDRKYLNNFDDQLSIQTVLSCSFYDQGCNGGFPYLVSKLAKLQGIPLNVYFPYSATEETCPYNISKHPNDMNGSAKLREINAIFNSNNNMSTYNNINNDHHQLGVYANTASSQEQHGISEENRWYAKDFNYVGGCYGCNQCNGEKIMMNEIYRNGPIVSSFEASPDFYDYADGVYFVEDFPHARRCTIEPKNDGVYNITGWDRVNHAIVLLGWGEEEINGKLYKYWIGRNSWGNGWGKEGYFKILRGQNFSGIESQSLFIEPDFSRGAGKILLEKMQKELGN
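Further: 30 min substrate incubation versus DMSO and 10 µM JCP410 controls.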

Row | SMILES | % Inhibition @ 10 uM [%]
1 | COc1cccc(-c2cc(C(=O)Nc3cccnc3)c3ccccc3n2)c1 | -3.24
2 | CCc1ccc(S(=O)(=O)NCC(=O)O)cc1 | 3.67
3 | COCCN1C(=O)C(O)=C(C(=O)c2ccc(Cl)cc2)C1c1ccc(Br)cc1 (centres unmarked) | -3.45
4 | COC(=O)c1cc(S(=O)(=O)Nc2ccc(C)cn2)c[nH]1 | -8.49
5 | Cc1ccc(C(=O)NCCNS(C)(=O)=O)cc1 | -1.33
6 | C=C(c1ccccc1C)[n+]1ccccc1 | -8.48
7 | CC1CCN(S(=O)(=O)c2ccc(-c3csc(-c4cccnc4)n3)cc2)CC1 | 0.913
8 | CC1=C(C(=O)Nc2ccccn2)C(c2ccc(Br)s2)C2=C(O)CC(C)(C)CC2=N1 (centres unmarked) | 2.01
9 | Cc1oc(-c2ccc(C(=O)NCCC3=CCCCC3)cc2)nc1CS(=O)(=O)c1ccccc1 | 4.6
10 | O=C(/C=C/c1ccco1)N1CCN(C(c2ccccc2)c2ccccc2)CC1 | 0.222
11 | C=CCN1C(=O)S/C(=C/c2ccc(-c3ccccc3C#N)o2)C1=O | -4.39
12 | CN1CCCN(Cc2ccco2)CC1 | -6.47
13 | COc1cc(-c2nnc3s/c(=C\c4ccccc4Cl)c(=O)n23)cc(OC)c1OC | 1.96
14 | COc1ccc2nc(NS(=O)(=O)c3ccc(Cl)cc3)c(NCc3ccc4c(c3)OCO4)nc2c1 | -2.19
15 | CCC(Cc1cc(OC)c(C)cc1OC)NC(=O)c1ccc(F)c(F)c1 (centres unmarked) | -2.39
16 | CCN(CC)C(=O)c1sc(NC(=O)c2cccc(Br)c2)c(C#N)c1C | 0.658
17 | COc1ccc(OCC(=O)Nc2ccc(S(=O)(=O)N3CCCC3)cc2)cc1 | 4.28
18 | CCOc1ccc(CC(=N)C2=C(O)CC(C)(C)CC2=O)cc1OCC | 4.19
19 | CCOC(=O)C1=C(C)N(c2ccc(C)cc2)C(=O)/C1=C\c1ccc(C(C)C)cc1 | -9.17
20 | COc1ccc(C2C3=C(O)CC(C)(C)CC3=NC(C)=C2C(=O)Nc2ccccc2OC)cc1 (centres unmarked) | -4.03
21 | Cc1cccc2sc(NC3(C(F)(F)F)N=C4SCCN4C3=O)nc12 (centres unmarked) | 2.57
22 | COc1ccc(C2C(C(C)=O)=C(O)C(=O)N2CCc2ccccc2)cc1 (centres unmarked) | -1.28
23 | CC12CN3CC(C)(CN(C1)C3C1CCCCC1)C2=O (centres unmarked) | 2.17
24 | CCC(CC)C(=O)Nc1nnc(Cc2ccc(OC)cc2)s1 | 5.44
25 | COc1ccc(-c2cc(C(=O)Nc3cc(C)on3)no2)cc1OC | -4.43
26 | CCc1c(C#N)c(SCCC(=O)Nc2cccc(OC)c2)nc2c1C(=O)CC(C)(C)C2 | 2.44

Row | SMILES | % Inhibition @ 10 uM [%]
27 | CC1CCN(S(=O)(=O)c2ccc(NC(=O)c3c(Cl)cccc3Cl)cc2)CC1 | -4.91
28 | O=C(NCCc1cccc(Cl)c1)c1ccc(Br)o1 | -3.24
29 | CC(C)(CO)NCc1c(OCc2ccccc2)ccc2ccccc12 | 3.56
30 | CS(=O)(=O)N1CCN(c2ccc(NC(=O)c3cccs3)cc2)CC1 | -2.29
31 | O=C(NCc1ccco1)c1ccc(CNS(=O)(=O)c2cccc(Cl)c2)cc1 | 0.795
32 | Cc1ccc(C)c(NC(=O)C2CC(=O)N(c3ccc(Cl)cc3)C2)c1 (centres unmarked) | 0.812
33 | COc1ccc(/C=c2\sc3nc(-c4ccc(OC(C)C)cc4)nn3c2=O)c(OC)c1 | -1.25
34 | COc1ccc(Cl)cc1NC(=O)CCN1CCN(C)CC1 | -1.28
35 | CC(C)Cn1cc(NC(=O)NCCc2c[nH]c3ccccc23)c2ccccc2c1=O | -5.55
36 | O=C1C2C3C=CC(C2C(=O)N1c1ccncc1)C1C(=O)N(c2ccncc2)C(=O)C31 (centres unmarked) | -2.37
37 | COc1ccc(/C=C2\SC(Nc3ccc(F)cc3)=NC2=O)cc1 | 2.43
38 | OC1CCCN(Cc2ccccc2C(F)(F)F)C1 (centres unmarked) | -0.969
39 | Cc1cc(O)c(C2=Nc3ccccc3SC(c3ccccc3Br)C2)c(=O)o1 (centres unmarked) | 6.11
40 | CC1CCc2nn(CC(=O)NCCc3c[nH]c4ccccc34)cc2C1 (centres unmarked) | -3.35
41 | Cc1ccccc1Cn1cc(CCCC(=O)NCCN2CCOCC2)c2ccccc21 | 1.92
42 | COc1cc(/C=C2/SC(=O)N(Cc3ccccc3F)C2=O)cc(OC)c1O | 4.74
43 | NC(=O)C1CCN(C(=O)Cn2ncc3c4ccccc4n(Cc4ccccc4)c3c2=O)CC1 | -1.58
44 | N#Cc1cc2c(nc1SCc1ccccc1F)CCC2 | 0.317
45 | Cc1ccc(-c2nc(C#N)c(N3CCCCC3)o2)cc1 | 1.87
46 | O=C(NCCc1ccccc1)c1ccc(Cl)c(Cl)c1 | -2.03
47 | CC(=O)c1ccc(OCC(O)Cn2c[n+](C)c3ccccc32)cc1 (centres unmarked) | 1.84
48 | COc1ccc(NC(=O)c2cccc(S(=O)(=O)Nc3cccc(C)c3)c2)cc1 | -9.29
49 | O=C1CCCCCN1C(=O)c1cccc(C(=O)N2CCCCCC2=O)n1 | -2.5
50 | CCOC(=O)c1sc2nccc(N(C)C)c2c1N | 0.484
51 | Cc1ccc(NC(=O)CN2C(=O)S/C(=C\c3cccn3C)C2=O)cc1C | -10.8
52 | CCCC(=O)c1c(Nc2ccccc2)cc(C)oc1=O | 0.605

Row | SMILES | % Inhibition @ 10 uM [%]
53 | CC(=O)Nc1ccc(NC(=O)Cn2nc(C(F)(F)F)cc2C2CC2)cc1 | -4.96
54 | CSc1ccccc1NC1CCN(C)CC1 | -5.44
55 | Cc1ccc(NC(=O)COc2ccc(S(=O)(=O)NC3CCCC3)cc2)cc1Cl | -0.872
56 | CNC(=O)C1CCCN(C(=O)c2ccc(-n3ccc4ccccc43)s2)C1 (centres unmarked) | -2.46
57 | COc1ccc(-c2c(C)nn3c(NCc4ccccn4)cc(C)nc23)cc1OC | -5.58
58 | O=C1CC(NC2CC2)C(=O)N1c1ccccc1 (centres unmarked) | -0.865
59 | CN(CCCNC(=O)c1cc(-c2cccnc2)nc2ccccc12)C1CCCCC1 | -0.519
60 | Cc1ccc(CNS(=O)(=O)c2cc(F)ccc2CN2C(=O)c3cccnc3C2=O)o1 | -7.11
61 | Cc1nc(NC(=O)CCCOc2ccc(Cl)cc2Cl)sc1C | 0.331
62 | COc1ccc(CCNCc2c(C(=O)O)n(Cc3ccccc3)c3ccccc23)c(OC)c1 | 5.09
63 | COc1cccc(/C=C/C(=O)c2c(C)cc(C)nc2O)c1OC | 2.41
64 | CN(CCc1ccccc1)C1CCN(Cc2ccccc2)CC1 | 1.08
65 | N#CCNC(=O)[C@H](CC1CCCCC1)NC(=O)c1c[nH]cn1 | 4.33
66 | O=C1C2C3CCC(C3)C2C(=O)N1c1ccccc1 (centres unmarked) | -4.72
67 | O=C(NCc1cccnc1)NC1(C(F)(F)F)Oc2ccc(Cl)cc2O1 (centres unmarked) | -2.14
68 | Cc1[nH]c2c(C)cccc2c1CCNC(=O)c1cc2cc(Cl)ccc2oc1=O | -2.19
69 | CCCN1CCC(N2CCN(c3ccc(F)cc3)CC2)CC1 | -1.42
70 | Cc1cc(CNC(=O)Cn2nc(C)c(Br)c2C)c2ccccc2n1 | -5.96
71 | Cc1ccc(C)c(S(=O)(=O)NCC(=O)NCc2ccco2)c1 | -4.72
72 | Cc1nc2sc(C(=O)c3ccc(F)cc3)c(N)c2c(C)c1C | -4.31
73 | Cc1cc(C)n2nc(-c3ccc(Cl)cc3)cc2n1 | 7.68
74 | CCOc1cnn(C)c(=O)c1OCC | -3.04
75 | COC(=O)c1cccc(OCC(=O)Nc2nn(-c3ccccc3)nc2C(N)=O)c1 | -4.42
76 | O=C(COc1ccc(S(=O)(=O)N2CCCC2)cc1)NCC1CCCO1 (centres unmarked) | 30.4
77 | CN(C)CCCNc1nc(-c2ccccc2)nc2ccccc12 | -3.23
78 | c1ccc(C(c2ccccc2)c2nn3c(-c4ccncc4)nnc3s2)cc1 | 8.94

Row | SMILES | % Inhibition @ 10 uM [%]
79 | OC(c1ccccc1)c1nccc2ccccc12 (centres unmarked) | 1.03
80 | O=C(Nc1nc(-c2ccccc2)cs1)C1c2ccccc2Oc2ccccc21 | -0.467
81 | CC(C)C(=O)NCCCc1nc2ccccc2n1C | -2.28
82 | Cc1ccc(-c2noc(CCCC(N)=O)n2)cc1 | -2.92
83 | COc1ccc(-c2csc3ncn(CC(=O)Nc4ccc(Cl)cc4)c(=O)c23)cc1OC | 2.76
84 | O=C(NCCc1c[nH]c2ccccc12)c1ccc(S(=O)(=O)N2CCCCC2)cc1 | -2.5
85 | CCCOc1ccc(C(=O)Nc2nc(C3COc4ccccc4O3)cs2)cc1 (centres unmarked) | -3.49
86 | CC1CC(=O)Nc2ccccc2N1C(=O)c1ccccc1Cl (centres unmarked) | -3.95
87 | O=C(c1ccc(CNc2c(N3CCCCC3)c(=O)c2=O)cc1)N1CCCCC1 | 5.65
88 | Cc1ccccc1Cn1cc(NC(=O)c2ccc(F)cc2)cn1 | -0.67
89 | OC1(C#CCN2CCCCCC2)CCCCC1 | 0.00178
90 | CCn1nc(N)c2c(C)c(Cl)c(C)nc21 | -0.624
91 | O=C(NC1CCCC1)N1CCC2(CC1)Oc1ccccc1C(=O)N2Cc1ccc(F)cc1 | -1.08
92 | Cc1c(C(=O)Nc2ccccc2)sc2ncn(CC(=O)NCCc3ccccc3)c(=O)c12 | -6.2
93 | Fc1cccc(CNC2CCN(CCc3ccccc3)CC2)c1 | -0.0494
94 | O=C(NC(c1ccccc1)c1ccccc1)c1ccco1 | -1.66
95 | Cc1nc2ccc(C(=O)O)cc2s1 | 0.221
96 | N#Cc1c(NC(=O)c2cccc(S(=O)(=O)NCc3ccccc3)c2)sc2c1CCCC2 | -3.9
97 | COc1ccc(C2c3c(n(C)c4ccccc34)C(=O)N2CC(=O)NCc2ccc(F)cc2)cc1 (centres unmarked) | -1.75
98 | C/C(Cl)=C\Cn1c(=O)c2c(nc3n2CCCN3c2ccccc2)n(C)c1=O | 0.385
99 | CCOC(=O)/C(C#N)=C1/C=Cc2ccccc2N1CC | 1.7
100 | CCN(CC)CCOC(=O)c1cccc2c1-c1ccccc1C2=O | -3.63
101 | Cc1cccc(N(CC(=O)O)CC(=O)O)c1 | -0.0369
